The other results are listed elsewhere or left out.

Our source for the binding signal values is PMC7819943, “Rice protein-binding microarrays: a tool to detect cis-acting elements near promoter regions in rice”.

The target in the assay is T1, OsWOX13 (Oryza sativa, UniProt Q5QMM3 1-267).
T1 sequence: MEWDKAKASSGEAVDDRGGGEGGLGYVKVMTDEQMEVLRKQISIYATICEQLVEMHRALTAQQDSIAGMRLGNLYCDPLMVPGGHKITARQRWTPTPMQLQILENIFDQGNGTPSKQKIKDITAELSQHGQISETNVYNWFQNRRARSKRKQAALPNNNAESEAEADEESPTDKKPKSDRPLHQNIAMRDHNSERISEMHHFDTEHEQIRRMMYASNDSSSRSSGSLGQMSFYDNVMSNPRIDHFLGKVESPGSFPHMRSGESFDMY
The experiment in a line: protein-binding microarray (RPBM); PBS, 2% BSA, 51.3 ng/ul salmon testes DNA, 50 uM zinc acetate, 200 nM TF, 25 C, 1 h; high values mean tight binding. The note with it: protein: recombinant; tags: N-terminal polyhistidine and DsRed monomer fusion (pET32a); label: CyDye5-dUTP incorporated in the synthesized complementary strand; 3' TTTTT single-stranded linker to array surface; dsDNA, one strand shown. The method in brief:
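Using Ni–NTA, transcription factors fused N-terminally to polyhistidine and DsRed were purified after expression in E. coli BL21-CodonPlus. These were incubated at 200 nM with a blocked, double-stranded custom Agilent array for 1 h at 25 °C in a buffer containing 50 µM zinc acetate, and the array was washed. The binding signal is per-feature fluorescence intensity (arbitrary units) on an Axon 4000B scanner.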
“ATAATTGTTCAGATTACAGTAATGCTGCAATAAACACTTACGGAGTCACCTAGTGCAG”: the binding signal was 9090 fluorescence intensity (a.u.).
Regarding “CAAAACAACATAATTGAGCATCCGGCTGCATGCATCGGTCCGGAGTCACCTAGTGCAG”, the binding signal is 13500 fluorescence intensity (a.u.).
Regarding “AGCAAAATGATTGCCAGATGACAAGATGCCAATGAAAATGCGGAGTCACCTAGTGCAG”, the binding signal is 26700 fluorescence intensity (a.u.).
The value for “GAAATTGCCAAATGGACAGGTTTGGCTGAATTGGATCTGTCGGAGTCACCTAGTGCAG” was 7770 fluorescence intensity (a.u.); that for “CAACATTGGCAAGTTAATTGATCGCAGATCGTTTTATCACCGGAGTCACCTAGTGCAG” was 23000 fluorescence intensity (a.u.).
As for “GCACCCATGCTGATTAGCCGCTGCTTAGCAATTGATTATGCGGAGTCACCTAGTGCAG”, the binding signal was 5910 fluorescence intensity (a.u.).
In the case of “CCCCTATTTTGTTACCTCATTATTCTCGTATTCCCCTTTTCGGAGTCACCTAGTGCAG”, the binding signal was 3830 fluorescence intensity (a.u.).
“CTGGGGATTGGCTGAGGACGGCGAGGGGAGCGGGAGTGGCCGGAGTCACCTAGTGCAG”: the binding signal was 9980 fluorescence intensity (a.u.).
Regarding “ATATCAAATATCAAATCAATGGTCTTTAAACATTCATCTTCGGAGTCACCTAGTGCAG”, the binding signal was 3160 fluorescence intensity (a.u.).
As to “TTAAAATTAAGCGCATTAATCATTCGTTTGTTTTGCTTGCCGGAGTCACCTAGTGCAG”, the binding signal is 8230 fluorescence intensity (a.u.).
Take “ATAGATTGCGTGTTTAATGGATTTATTGTCTCTATTACTTCGGAGTCACCTAGTGCAG”: the binding signal was 19800 fluorescence intensity (a.u.).
In the case of “ATGACAAACTGGTTTTGGGGCCAAAATGTTATCGATTGCTCGGAGTCACCTAGTGCAG”, the binding signal was 3570 fluorescence intensity (a.u.).
For “GCTAATTTGCGATGCTTCACATGCAGGCCAACCCTGACACCGGAGTCACCTAGTGCAG”, the binding signal was 14700 fluorescence intensity (a.u.).
Regarding “GTTTTATTTTAGACACCAATCATGCTATAGATTAGGGCCTCGGAGTCACCTAGTGCAG”, the binding signal is 12400 fluorescence intensity (a.u.).
With “AGTAATAACTGGGCCAAATTTTAGTGGCAGTAATATTTTGCGGAGTCACCTAGTGCAG”, the binding signal was 5680 fluorescence intensity (a.u.).
For the sequence “CATGATTGTCACTTACCTTGCCTTCCTCAATCTTGGGATTCGGAGTCACCTAGTGCAG”, the binding signal was 48500 fluorescence intensity (a.u.).
The value for “ATTAGATTGAAAATATCTCAAAATTAAGTTTGAAAATTTACGGAGTCACCTAGTGCAG” was 12900 fluorescence intensity (a.u.); that for “GGTTAATTTCCCTCATGAGTATATGCCTGAAATTTTGGATCGGAGTCACCTAGTGCAG” was 20200 fluorescence intensity (a.u.); that for “CTAATTAGGTCCAGGACATTAAATGGGTTGATTACGTCACCGGAGTCACCTAGTGCAG” was 8450 fluorescence intensity (a.u.).
The value for “TACTAATCATTTGTCGAAAGAAAAGTCTTTTGCTTCGCTGCGGAGTCACCTAGTGCAG” was 7180 fluorescence intensity (a.u.); that for “ATACTCTAGATAATAATTATTAATGTGTAATGATATGATGCGGAGTCACCTAGTGCAG” was 6700 fluorescence intensity (a.u.).
For “CGTAGATAATTACATAAACCTTTAAGCACAACATAGATAACGGAGTCACCTAGTGCAG” the value was 9750 fluorescence intensity (a.u.).
Turning to “TTTGTTGATTTGTTGCTATAGTACTTCAACAATACCGAGCCGGAGTCACCTAGTGCAG”, the binding signal was 32200 fluorescence intensity (a.u.).
Take “TCCTAACTAAAATTCTCCTTAATTTGATATCACTCATATTCGGAGTCACCTAGTGCAG”: the binding signal was 6210 fluorescence intensity (a.u.).
On to “GTCATTTAAAATTATTAGGAAAATAGACAAAATATGATACCGGAGTCACCTAGTGCAG”, for which the binding signal is 4320 fluorescence intensity (a.u.).
As to “GCACCGTTGATGAAATTGCCGTTAGAATTTCGATCATCCCCGGAGTCACCTAGTGCAG”, the binding signal is 4810 fluorescence intensity (a.u.).
In the case of “ATCACGCTAACAAATGTAATTAAATATTGTTTCACTGAATCGGAGTCACCTAGTGCAG”, the binding signal was 5620 fluorescence intensity (a.u.).
For “AAAAGAAGTTAATTATAATTAATTGTGATAAGAGGATAGACGGAGTCACCTAGTGCAG”, the binding signal is 29400 fluorescence intensity (a.u.).
For “CTAACTGTGATAATTAAACACTAATACTCTACTACTGGTACGGAGTCACCTAGTGCAG”, the binding signal was 17900 fluorescence intensity (a.u.).
“CAGAACTAATTATTATATTTTATTGTGTGATATTATAGAGCGGAGTCACCTAGTGCAG”: the binding signal is 10400 fluorescence intensity (a.u.).
For “AAGTTTGATTGAAATTGGAACGATGTGACGGAAAAGTTGACGGAGTCACCTAGTGCAG” the value was 35100 fluorescence intensity (a.u.); for “AATTAATTGTCTGATCAGTGATCTTTATTAACTGTCGACGCGGAGTCACCTAGTGCAG”, 28400 fluorescence intensity (a.u.).
Take “ATGTGATTATTTCGTCCTGCTGTAAACTTGGTGCAAGTGACGGAGTCACCTAGTGCAG”: the binding signal was 18600 fluorescence intensity (a.u.).
Turning to “ACTTATCGCAAATTTATAATTTCAAATTTATCTTTTCGGACGGAGTCACCTAGTGCAG”, the binding signal is 10300 fluorescence intensity (a.u.).
The value for “TATGATGTGACAAAATTTGAATGATTTTGTGACTTGGACCCGGAGTCACCTAGTGCAG” was 30200 fluorescence intensity (a.u.); that for “AATTTCAATCAAAATCCAAACTTTACACTGAACTAAACACCGGAGTCACCTAGTGCAG” was 17700 fluorescence intensity (a.u.).
“TAACTAACAAATTGAAAATGAAATTTATATCTGTAGTCAACGGAGTCACCTAGTGCAG”: the binding signal is 18400 fluorescence intensity (a.u.).
As for “TTGGATTGGTTTCTTTCTGCTCTGTTGCAGCTCCGTTGTCCGGAGTCACCTAGTGCAG”, the binding signal was 9000 fluorescence intensity (a.u.).
On to “GTTGATGTCGATCGATTGACGGGACGTCGACATCAAGTCGCGGAGTCACCTAGTGCAG”, for which the binding signal was 10700 fluorescence intensity (a.u.).
For the sequence “TTTATAAATTATGTTTCATCTGTAAATATGACATTTCACACGGAGTCACCTAGTGCAG”, the binding signal is 12000 fluorescence intensity (a.u.).
Take “GCAGATGATTATTACGCCAAGGAGGGCAGCAACTATGGAACGGAGTCACCTAGTGCAG”: the binding signal was 11800 fluorescence intensity (a.u.).
Take “CGATTCGAAACGGATTGATTGCCCCTGCTTTATTATCGAACGGAGTCACCTAGTGCAG”: the binding signal is 18900 fluorescence intensity (a.u.).
